Data: publication PMC4336329 (PLoS ONE, 2015)
In all, about 310,000 compounds went through this assay and about 2,200 (0.71%) showed an effect of 50% or more. The effect is printed as a negative number. The list shows a part of the results.

molecular target: human ether-à-go-go-related gene (hERG) potassium channel (human, UniProt Q12809); assay: primary screen, population patch clamp on CHO cells stably expressing hERG
Sequence (Q12809 whole entry, looked up): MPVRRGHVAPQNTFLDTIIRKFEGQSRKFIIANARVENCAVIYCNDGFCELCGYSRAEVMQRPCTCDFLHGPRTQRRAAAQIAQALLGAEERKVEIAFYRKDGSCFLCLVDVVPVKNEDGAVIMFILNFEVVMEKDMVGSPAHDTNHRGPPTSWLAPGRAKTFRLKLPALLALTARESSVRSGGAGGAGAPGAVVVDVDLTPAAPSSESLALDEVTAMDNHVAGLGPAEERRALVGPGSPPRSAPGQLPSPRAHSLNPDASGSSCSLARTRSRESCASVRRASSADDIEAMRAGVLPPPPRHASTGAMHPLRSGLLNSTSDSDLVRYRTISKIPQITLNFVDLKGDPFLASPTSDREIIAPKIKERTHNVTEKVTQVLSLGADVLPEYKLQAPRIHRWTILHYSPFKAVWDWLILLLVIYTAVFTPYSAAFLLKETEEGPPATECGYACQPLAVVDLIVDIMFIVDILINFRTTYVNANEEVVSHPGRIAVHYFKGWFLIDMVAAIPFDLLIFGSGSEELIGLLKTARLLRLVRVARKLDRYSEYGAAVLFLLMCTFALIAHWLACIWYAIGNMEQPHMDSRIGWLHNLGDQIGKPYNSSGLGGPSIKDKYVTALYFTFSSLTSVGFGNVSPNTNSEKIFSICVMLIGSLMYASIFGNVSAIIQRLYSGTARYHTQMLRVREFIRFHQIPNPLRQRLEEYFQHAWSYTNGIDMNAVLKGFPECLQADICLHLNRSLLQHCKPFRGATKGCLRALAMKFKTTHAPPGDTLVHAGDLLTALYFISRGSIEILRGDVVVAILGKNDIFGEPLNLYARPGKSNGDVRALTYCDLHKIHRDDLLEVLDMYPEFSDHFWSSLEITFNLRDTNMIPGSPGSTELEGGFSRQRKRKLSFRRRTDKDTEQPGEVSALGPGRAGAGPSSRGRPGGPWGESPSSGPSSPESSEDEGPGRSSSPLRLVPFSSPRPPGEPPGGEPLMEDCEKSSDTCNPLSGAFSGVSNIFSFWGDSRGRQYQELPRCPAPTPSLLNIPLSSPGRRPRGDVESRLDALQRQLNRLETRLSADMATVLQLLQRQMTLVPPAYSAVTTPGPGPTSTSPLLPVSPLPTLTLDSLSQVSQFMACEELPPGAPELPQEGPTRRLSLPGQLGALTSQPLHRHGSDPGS

Row | SMILES | hERG current change (%, negative = inhibition) at 1uM
1 | COc1cc(C(=O)Nc2nnc(SC)s2)c([N+](=O)[O-])cc1OC | 4.89%
2 | S=c1[nH]nc(-c2ccccc2)n1/N=C/c1cccc(Cl)c1 | 14.3%
3 | CSc1ccc(S(=O)(=O)N2CCC(C(=O)NCc3ccco3)CC2)cc1 | 18.7%
4 | O=C(NC(=S)Nc1ccc2[nH]c(=O)[nH]c2c1)c1cc(Br)ccc1Cl | 13.1%
5 | CC[N+](C)(CC)CCC/C(=N/O)C(O)(c1ccccc1)c1ccccc1.[I-] | 11.1%
6 | COc1ccc(S(=O)(=O)Nc2cccc(Cl)c2)cc1OC | 13.3%
7 | O=C(NCC1CCCN(C(=O)CN2CCCCC2)C1)c1ccccc1Cl (stereo not drawn) | 12.5%
8 | O=C(NC1=NCCS1)C1CCCCC1 | 15.9%
9 | O=C(C1=C[C@H](c2ccc(Br)cc2)C[C@H](OCc2ccc(CO)cc2)O1)N1CCN(Cc2ccc3c(c2)OCO3)CC1 | -2.62%
10 | CN(C)CCN(C(=O)c1cccc2ccccc12)c1nc2cc3c(cc2s1)OCO3.Cl | 6.25%
11 | CC(Oc1ccccc1F)c1nnc(SCC(=O)NCc2ccc3c(c2)OCO3)o1 (stereo not drawn) | -8.19%
12 | COc1ccccc1NS(=O)(=O)c1cc(NC(=O)C2CCC2)ccc1N1CCCCC1 | 15.1%
13 | Cc1cc(NC(=O)Nc2cc(Cl)ccc2C)no1 | -1.78%
14 | CCc1nn(CC(=O)N2CCN(c3ccc(OC)cc3)CC2)c(=O)c2cc3occc3n12 | -5.86%
15 | COc1ccc(CN2CCN(C(=O)CC(C)C)CC2)cc1Br | 6.71%
16 | COc1ccc(NS(=O)(=O)c2ccc(O)c(NC(=O)c3ccc(S(=O)(=O)N4CCCC4)cc3)c2)cc1 | 7.18%
17 | c1ccc(CSc2snnc2-c2ccccc2)cc1 | 10.1%
18 | CC(=O)N/C(=C/c1ccc2c(c1)OCO2)C(=O)NC(Cc1ccccc1)C(=O)O (stereo not drawn) | 5.46%
19 | Cc1cc(Cl)ccc1OCC(=O)NCCCCc1ccccc1 | 11.6%
20 | CCC(C)(C)NC(=O)CN(Cc1ccc2c(c1)OCO2)C(=O)CCC(=O)Nc1nccs1 | 10.5%
21 | CC(C)(C)NC(=O)C1Cc2ccccc2CN1 (stereo not drawn) | 13.4%
22 | Cc1ccc(C(CNS(=O)(=O)c2ccc(C)cc2)N2CCN(C)CC2)cc1 (stereo not drawn) | -27.8%
23 | CN1CCN(c2ccc(NC(=O)N3CCc4ccccc43)cc2)CC1 | 2.29%

Row | SMILES | hERG current change (%, negative = inhibition) at 1uM
24 | Cc1ccc(-c2cc(NC(=O)c3ccccc3)on2)cc1 | 15.1%
25 | COCC(C)NC(=O)Cn1c(SCc2ccccc2)nc2ccccc21 (stereo not drawn) | 3.78%
26 | O=C(CSc1ncccn1)Nc1cc(Cl)ccc1[N+](=O)[O-] | 16.5%
27 | O=C(CSc1nnc(C2CC2)n1Cc1ccccc1)N1CCN(S(=O)(=O)c2ccccc2)CC1 | -3.97%
28 | O=C(COC(=O)c1ccccc1-n1cnnn1)c1ccc(F)c(F)c1 | 13%
29 | COC(=O)CC1=NC(=O)CS1 | 2.46%
30 | CCOc1ncccc1C(=O)NNC(=O)c1ccccc1-n1cccc1 | 12.9%
31 | COCCSc1ccccc1C(=O)N1CCN(Cc2ccccc2)CC1 | 10.7%
32 | Cc1nnc(SCC(=O)N2CCOCC2)s1 | 2.63%
33 | C=CCNC(=O)c1onc(CS(=O)(=O)c2cc(C)cc(C)c2)c1C(=O)NCC=C | 2.36%
34 | COC(=O)c1ccncc1C(=O)Nc1ccc(F)cc1 | 19.4%
35 | c1ccc2sc(C3CCCNC3)nc2c1 (stereo not drawn) | 3.96%
36 | CCOC(=O)C1CCN(Cc2nc3ccc([N+](=O)[O-])cc3c(=O)n2-c2ccc(OC)cc2OC)CC1 | -3.1%
37 | CCn1c(C)cc(C)c(C#N)c1=O | 13.7%
38 | CCC(=O)N1C(=O)C2(Nc3ccccc3N2)c2ccccc21 | 4.7%
39 | COc1cc(SC)ccc1C(=O)N(CC(=O)Nc1ccccc1Br)Cc1ccco1 | 17.9%
40 | COc1cc(/C=C2\CCCc3c2nc2ccccc2c3C(=O)O)cc(Br)c1O | 12.1%
41 | Cc1cc(C(=O)NCc2ccco2)sc1C | 14.7%
42 | Cc1cc(O)c(CN2CCN(c3ccccc3)CC2)cc1C | 4.47%
43 | Cc1nc(NC(=O)CCc2ccccc2)ccc1Br | 11.1%
44 | CCOC(=O)c1c([N+](=O)[O-])c(C)[nH]c(=O)c1C#N | 20.7%
45 | CCCSc1nc(=O)n2cc(C)ccc2n1 | -3.83%
